Measurements reported in the RNAGym collection of RNA variant scans (doi:10.1093/nar/gkz1192).
The source gives no read counts; variants with many changes may rest on few reads.

B1: CPEB3 Ribozyme (parent)
chain: UAACAGGGGGCCACAGCAGAAGCGUUCACGUCGCAGCCCCUGUCAGAUUCUGGUGAAUCUGCGAAUUCUGCUGUAUAUCUC

Variants of: B1
Assay: self-cleavage, relative activity (ratio to wild type); higher = more cleavage; in vitro, sequencing
Outline: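 Relative activity compares each variant's cleaved/total read fraction with that of the unmutated ribozyme. To get these fractions, barcoded CPEB3 ribozyme libraries from rounds of error-prone PCR were transcribed with T7 RNA polymerase for 5 hours at 37°C and then given 15 min of DNase I treatment before EDTA was added. The RNAs were reverse transcribed with template switching and sequenced on Illumina, and DNA sequencing linked barcodes to variants. A minimum of 5 reads applied, and three batches were averaged.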
Variant UUGCAGGGGGCCACUGCAGAGGCGUUCACGUCGCGGCCCCUGUCAGAUUCUGGUGAAUCUGCGAAUCCUGCUGUAUAUCUC [A2U A3G A15U A21G A35G U67C] has a self-cleavage of 0.12. UUGCAGGGGGCCACAGCCGAAGCGUUCACGUCGCAGCCCCUGUCAGAUUCUGGUGAAUCUGCGAAUUCUGCUGUAUAUCCC [A2U A3G A18C U80C] showed a self-cleavage of 0.52. Work on UUGCAGGGGGCCACAGCAGAAGCGUUCACGUCGCUGCCCCUGUCCGAUUCUGGUGAAUCUGCGAAUCCUGCUGUGUAUCUC [A2U A3G A35U A45C U67C A75G] yielded a self-cleavage of 0.05. For UUGCAGUGGGCCACAGCAGAAGCGUUCACGUCGCAGCCCCGGUCAGAUUCUGGUGAAUCUGCGAAUUCUGCUGUAUAUCUC [A2U A3G G7U U41G], the self-cleavage was 0.08. UUGCAGGGGGCCACAGCAGAAGCGCUCACGCCGCAGCCCCUGUCAGAUUCUGGUGAAUCAGCGAAUUCUGCUGUAUAUCUC [A2U A3G U25C U31C U60A] gave a self-cleavage of 0.33. For UUUCAGAGGGCCACAGCAGAAGCGUUCACGUCGCAGCCCCUGUCAGAUUCUGUUGAACCUGCGAAUUCUGCUGUAUAUCUC [A2U A3U G7A G53U U58C], the self-cleavage was 0.39. In the case of UUACGGGGGGCCACAGCAGAAGCGUUCACGUCGCUGCCCCUGUCAGAUUCUGGUGAAUCUGCGAAUUCUGCAGUAUAUCUC [A2U A5G A35U U72A], the self-cleavage is reported as 0.54. Work on UUACGGGGGGCCACAGCAGAAGCGUUCACGGCGCAGCCCCUGUCAGGCUCUGGUGAAUCUGCGAAUUCUGCUGUAUAUCUC [A2U A5G U31G A47G U48C] yielded a self-cleavage of 0.32. UUACGGGGGGCCACAGCAGAAGCGUUCACGUCGCAGCCCCUGUCAGAUUCUGGUGAAUCUGCGAAUUCCGCUGUAUAUCUC [A2U A5G U69C] showed a self-cleavage of 0.38. For UUACUGGGGGCCACGGCAGAAGCGUUCACGUCGCAGCCCCUGUCAGAUUCUGGUGAAUCUGCGAAUUCUGCUGUAUAUCUC [A2U A5U A15G], the self-cleavage was 0.87. With UUACUGGGGGCCACAGCAGAAGCGUUCACGUCGCAGCCCCUGUCAGAUUCUGGUGAAUCUGCGAAUUCUGCUGUAUAUCAC [A2U A5U U80A] the self-cleavage was 0.74. In the case of UUACAGGGGGCCGCAGCGGAAGCGUUCACGUCGCAGCCCCUGUCAGAUUCAGGUGAAUCUGCGAAUUCUGCUGUAUAUCUC [A2U A13G A18G U51A], the self-cleavage is reported as 0.2. Variant UUACAGGGGGCCGCAGCAGAAGCGUCCACGUCGCAGCCCCUGUCAGAUUCUGGUGAAGCUGCGAAUUCUGCUGUAUAUCUC [A2U A13G U26C U58G] has a self-cleavage of 0.26. With UUACAGGGGGCCUCGGCAGAAGCGUUCACGUCGCAGCCCCCGUCAGAUUCUGGUGAAUCUGCGAAUUCUGCUGUAUAUCUC [A2U A13U A15G U41C] the self-cleavage was 0.86. Variant UUACAGGGGGCCACGGCCGAAGCGCUCACGACGCAGCCCCUGUCAGAUACUGGUGAAUCUGCGAAUUCUGCUGUAUAUCUC [A2U A15G A18C U25C U31A U49A] has a self-cleavage of 0.4. Variant UUACAGGGGGCCACGGCAGAAGCGUUCACGUCGCGGCCCCUGUCAGAUUCUGGUGAAUCUGCGUAUUCAGCUGAAUAUCGC [A2U A15G A35G A64U U69A U74A U80G] has a self-cleavage of 0.14. Work on UUACAGGGGGCCACGGCAGAAGCGUUCACGUCGCAGCCCCCGUCAGAUUCUGGUGAAUCUGCGAAUUCUGCUGCAUAUCUC [A2U A15G U41C U74C] yielded a self-cleavage of 0.81. With UUACAGGGGGCCACUGCAGAAGCGCCCACGUCGCAGCCCCUGUCGGAUUCUGGUGAAUCUGCGAAUUCUGCUGUAUAUCCC [A2U A15U U25C U26C A45G U80C] the self-cleavage was 0.35. With UUACAGGGGGCCACUGCAGAAGCGUUCACGUCGCAGCCCCCGUCAGAUUCUGGUGAAUCUGCGAGUUCUGCUGUAUAUCUC [A2U A15U U41C A65G] the self-cleavage was 0.26. With UUACAGGGGGCCACAGCGGAAGCGUUCACGUCGCAGCCCCUGUCAGAUUCUGGUGAAUCUGCGUAUUCCGCUGUAUAUCUC [A2U A18G A64U U69C] the self-cleavage was 0.24. UUACAGGGGGCCACAGCGGAACCGUUCACGUCGCAGCCCCGGUCAGAUUCUGGUGAAUCUGCGAAUUCCGCUGUAUAUCUC [A2U A18G G22C U41G U69C] gave a self-cleavage of 0.14. UUACAGGGGGCCACAGCAGCAGCGUUCACGUCGCAGCCCCUGUCGGAUUCUGGUGAAUCUGCGAACUCUGCUGUAUAUCUC [A2U A20C A45G U66C] gave a self-cleavage of 0.07. UUACAGGGGGCCACAGCAGUAGCGUUCGCGUCGCAGCCCCUGUCAGAUUCCGGUGAGUCUGCGAAUUCUGCUGUGUAUCUC [A2U A20U A28G U51C A57G A75G] showed a self-cleavage of 0.1. For UUACAGGGGGCCACAGCAGUAGCGUUCACGUCGCAGCCCCUGUCAGAUUCUGGCGAAUCUGCGAAUUCUGCCGUAUAUCCC [A2U A20U U54C U72C U80C], the self-cleavage was 0.21. With UUACAGGGGGCCACAGCAGAGGCGUUCACGUCGCCGCCCCUGUCAGAUUCUGGUGAAUCUGCGAAUUCUGCUGUAUAUCUC [A2U A21G A35C] the self-cleavage was 0.12. With UUACAGGGGGCCACAGCAGAGGCAUUCACGUCGCGGCCCCUGUCAGAUUCUGGUGAAUCUGCGAAUUCUGCAGUAUAUCUC [A2U A21G G24A A35G U72A] the self-cleavage was 0.1. In the case of UUACAGGGGGCCACAGCAGAGGCGUCCACGUCGCAGCCCCUGUCAGAUUCUGGAGAAUCUGCGAAUUCUGCUGUAUAUCUC [A2U A21G U26C U54A], the self-cleavage is reported as 0.14. Variant UUACAGGGGGCCACAGCAGAAGCGUUCGCGUCGCAGCCCGUGUCAGAUUCUGGUGAAUCUGCGAAUUCUGCUGUAUAUCUC [A2U A28G C40G] has a self-cleavage of 0.29. Variant UUACAGGGGGCCACAGCAGAAGCGUUCUCGUCGCGGCCCCUGUCGGAUUCCGGUGAGUCUGCGAAUUCUGCUGAAUAUCUC [A2U A28U A35G A45G U51C A57G U74A] has a self-cleavage of 0.82. Work on UUACAGGGGGCCACAGCAGAAGCGUUCUCGUCGCAGCCCCUGUCUGAUUCUGGAGAAUCUGUGAAUUCUGCUGUACGUCUC [A2U A28U A45U U54A C62U U76C A77G] yielded a self-cleavage of 0.09. For UUACAGGGGGCCACAGCAGAAGCGUUCACGUCGCGGCCCCUGUCAGAUUCUGAUGAAUCUGCGAAUUCUGCUGUAUAUCUC [A2U A35G G53A], the self-cleavage was 1.23. UUACAGGGGGCCACAGCAGAAGCGUUCACGUCGCGGCCCCUGUCAGAUUCUGGGGAAUCUGCGAAUUCUGCUGUAUAUCUC [A2U A35G U54G] showed a self-cleavage of 1.2. In the case of UUACAGGGGGCCACAGCAGAAGCGUUCACGUCGCUGCCCCUGUCAGAUUCUGGUGAAUCUGCGAAUUCUGCUGUGUAUCUC [A2U A35U A75G], the self-cleavage is reported as 0.42. Work on UUACAGGGGGCCACAGCAGAAGCGUUCACGUCGCAGCCCCUGUCGGAUUCCGGUGAAUCUGCGAAUUCUGCUGUAUAUCGC [A2U A45G U51C U80G] yielded a self-cleavage of 0.74.
